In PubChem BioAssay AID686979 (National Center for Advancing Translational Sciences (NCATS), 2013):
The campaign covered roughly 420,000 compounds. About 50,000 (12%) were called active. Inconclusive results, whose numbers are uncertain, are shown with a selection of clear calls. Calls follow the shape of the dose curve; as a rule, active = well fitted inhibition curve with a large enough effect; inconclusive = small, poorly fitted or top-dose-only effect; inactive = flat fitted curve, though single readings scatter. No potency is given beside an inconclusive call; the fits are too rough.

Assay: qHTS for Inhibitors of human tyrosyl-DNA phosphodiesterase 1 (TDP1): qHTS in cells in presence of CPT; also: nearly all actives have a fitted effect of over 55% in size
Details: chicken DT40 Tdp1-/-;hTDP1 cells + 20 nM CPT, ATP luminescence, 48 h; activity change, negative = growth inhibition: at 46.2 µM (top of the series) unless noted
In short: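 Chicken DT40 Tdp1-/- cells stably complemented with human TDP1 were seeded at 400 cells/well in medium containing 20 nM camptothecin, exposed to pin-transferred compounds, and grown at 37 °C for at least 48 hr. Viability was read as ATP luminescence.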
% is scaled to controls: 0 for no effect and ±100 for the full control effect; potency is read from the fitted curve at half-maximal effect; tags tell the direction and shape of the fitted curve.

Compound	Potency	activity change, negative = growth inhibition
COc1ccc(CCCNC(=O)C2Cc3c(-c4cccc(C(C)=O)c4)ccnc3O2)cc1 (stereo unspecified)	active: 3.66 µM	–
CCN(CC)c1ccc(/C=N/NC(=S)NC)c(O)c1	active: 0.731 µM	–
CN1CC(=O)N(CC(=O)Nc2cccc(C#N)c2)c2ccccc2C1=O	–	inactive: -1.71%
O=C(CNC(c1ccccc1)c1ccccc1)Nc1ccccc1-c1ccccc1	inconclusive [inhibitor, single point]	–
O=C(c1ccco1)N1CCN(C(=O)c2ccc(-c3cccc(C(F)(F)F)c3)o2)CC1	inconclusive [inhibitor, single point]	–
O=C(Nc1ccccc1C(F)(F)F)C1(S(=O)(=O)c2ccc(Cl)cc2)CC1	–	inactive: 9.8%
Cc1cnn(-c2cc(N/N=C/c3ccccc3Cl)ncn2)c1	inconclusive [inhibitor, single point]	–
COc1ccc(NC(=O)N(Cc2cc3cc(C)ccc3[nH]c2=O)CC2CCCO2)cc1 (stereo unspecified)	active: 18.4 µM	–
Cc1ccc(CCNC(=O)c2cnc3c(C)cccn3c2=O)cc1	inconclusive [inhibitor, single point]	–
C[n+]1ccc(/C=C/c2ccc([N+](C)(C)C)cc2)c2ccccc21	active: 0.141 µM	–
CCn1c(/N=C/c2ccccc2O)nc2ccccc21	–	inactive: 19.8%
O=C1COc2ccc(C(=O)CSc3nnc(Cc4cccs4)n3-c3ccc(Cl)cc3)cc2N1	active: 18.4 µM	–
CCOc1ccc2[nH]cc(C(=O)NCc3ccccc3)c(=O)c2c1	active: 16.4 µM	–
Cc1c(Cl)cccc1NC(=O)Nc1nnc(N(C)C2CCCCC2)s1	active: 14.6 µM	–
Cc1c(C(C)(C)C)c(C=S)n2ccccc12	inconclusive [inhibitor, single point]	–
Cc1cc(C)n2nc(-c3ccccc3)c(-c3ccccc3)c2n1	inconclusive [inhibitor, single point]	–
COc1ccc(-c2nc3cnc(N4CCNCC4)nc3n(C)c2=O)cc1	inconclusive [inhibitor, single point]	–
CC1CCCN(C(=O)c2ccc(COc3ccccc3Br)cc2)C1 (stereo unspecified)	inconclusive [inhibitor, single point]	–
COc1ccc(-c2cn3c(n2)sc2cc(C(=O)NCC(C)c4ccccc4)ccc23)cc1 (stereo unspecified)	inconclusive [inhibitor, full curve]	–
CCN1C(=O)[C@H]2[C@@H](c3ccc(C(F)(F)F)cc3)N[C@]3(CCCN(Cc4ccco4)C3=O)[C@H]2C1=O	active: 23.1 µM	–
Cc1ccc(CNC(=O)Cn2cnc3c(NC(=O)OCc4ccccc4)ncnc32)o1	–	inactive: -10.4%
CCOC(=O)N1CCN(Cc2nc3cc(NC(=O)c4ccc(F)cc4)ccc3n2C(C)C)CC1	active: 0.92 µM	–
Cc1ccc(-c2noc(CN(C(=O)c3cccc(Br)c3)C(C)C)n2)cc1	inconclusive [inhibitor, single point]	–
CN(C1CCCCC1)S(=O)(=O)c1ccc2c(c1)c(=O)c(C(=O)N1CCN(c3ccc(F)cc3)CC1)cn2C	–	inactive: -9.54%

Compound	Potency	activity change, negative = growth inhibition
O=C(CN(Cc1ccc(Cl)cc1)C(=O)c1csnn1)NCc1ccc(F)cc1	–	inactive: -16.2%
Fc1ccc(N2CCN(c3ncnc4c3nnn4Cc3ccccc3Cl)CC2)cc1	inconclusive [inhibitor, partial curve]	–
CCOC(=O)N1CCN(C(=S)NC(=O)C23CC4CC(CC(C4)C2)C3)CC1	inconclusive [inhibitor, single point]	–
Cc1ccc(SCCCn2cncn2)cc1	–	inactive: -6.15%
Cc1cc(C)n(-c2nc3ccccc3c(=O)n2OCc2ccc(Cl)cc2)n1	inconclusive [inhibitor, partial curve]	–
Cc1ccc(C(=O)c2cn(Cc3cc(C)ccc3C)c3nc(C)ccc3c2=O)cc1	inconclusive [inhibitor, single point]	–
CCc1ccc(NC(=S)N(Cc2cccnc2)Cc2ccco2)cc1	inconclusive [inhibitor, single point]	–
CCCCCCNC(=O)CCc1c(C)nc2nc(-c3cc(OC)cc(OC)c3)nn2c1C	inconclusive [inhibitor, single point]	–
CC1(C(=O)NCc2ccc(Cl)cc2)CCN1C(=O)Cc1cccs1 (stereo unspecified)	inconclusive [inhibitor, single point]	–
Cc1cc(C)nc(SC2=CS(=O)(=O)c3ccccc32)n1	inconclusive [inhibitor, single point]	–
Cc1c(Cl)cccc1NC(=O)CN(C1CCCCC1)S(C)(=O)=O	inconclusive [inhibitor, single point]	–
CN(C)c1cccc(CNC(=O)c2csc([C@@H]3O[C@H](CO)[C@@H](O)[C@H]3O)n2)c1	active: 13 µM	–
CCOC(=O)c1c(/N=C/C2=C(O)CC(C)(C)CC2=O)sc2c1CCCC2	–	inactive: -0.537%
CCS(=O)(=O)n1nc(-c2ccco2)nc1NCc1ccc(C(C)C)cc1	inconclusive [inhibitor, single point]	–
CN1CCN(c2ccc(NC(=O)C(C)(c3ccccc3)c3ccccc3)cc2)CC1	inconclusive [inhibitor, single point]	–
CCCCn1c(SCC(=O)Nc2cccc(OC)c2)nc2ccc(N3CCOCC3)cc2c1=O	inconclusive [inhibitor, single point]	–
CCc1ccccc1NC(=O)c1nn(-c2ccc(C)cc2)c(=O)c2c1c1ccccc1n2C	–	inactive: -6.71%
CCOc1cc(C(C(=O)NCC2CCCO2)N(C(=O)Cn2nnc3ccccc32)c2cccc(OC)c2)ccc1O (stereo unspecified)	–	inactive: 16.8%
COc1cccc(C(O)c2nc(-c3ccc4ccccc4c3)cs2)c1 (stereo unspecified)	inconclusive [inhibitor, single point]	–
CCOC(=S)NC(=O)c1sc2ccccc2c1Cl	inconclusive [inhibitor, single point]	–
CCc1nc2ccc(C(=O)Nc3cccc(OCC(=O)N(C)C)c3)cn2c1N(C)C(=O)c1cccc(OC)c1	inconclusive [inhibitor, single point]	–
O=C1CC[C@H](OCc2ccccc2)CCN1[C@H](CSc1ccccc1)Cc1ccccc1	–	inactive: -26.8%
CCCCCN(C(=O)CCC(=O)OCC(=O)c1ccc(F)c(F)c1)c1c(N)n(CCCC)c(=O)[nH]c1=O	–	inactive: -12.8%
N#CCCn1nc(-c2ccc([N+](=O)[O-])cc2)cc1Nc1ccccc1NC(=O)C(F)(F)F	inconclusive [inhibitor, single point]	–

Compound	Potency	activity change, negative = growth inhibition
CSC1(SC2=NCCN2)SC2(NCCN2)S1	active: 10.3 µM	–
Cc1ccc(NC2c3ncccc3C(=O)N2Cc2ccco2)c(C)c1 (stereo unspecified)	–	inactive: -16.8%
O=C(NNC(=S)Nc1cccc(Cl)c1)c1ccccc1	inconclusive [inhibitor, single point]	–
COc1cccc(OC)c1OCCCN1CCC(Cc2ccccc2)CC1	inconclusive [inhibitor, single point]	–
Cc1cccc(-c2nnc(SCC(=O)C(C)(C)C)n2C)c1	–	inactive: -21.7%
N#Cc1c(N)nc2c3c(sc(=N)c2c1N)NC(=O)CC3c1ccccc1Cl (stereo unspecified)	–	inactive: -88.9%
Cc1ccc(S(=O)(=O)N(CC(O)CN2CCCCC2)c2cccc([N+](=O)[O-])c2)cc1 (stereo unspecified)	–	inactive: 3.37%
O=C(NC1CCCCC1)N(Cc1ccccc1)Cc1ccco1	inconclusive [inhibitor, single point]	–
COc1ccc(S(=O)(=O)Nc2ccccc2-c2nc3ccccc3[nH]c2=O)cc1	inconclusive [inhibitor, single point]	–
Cc1ccc(C)c(NS(=O)(=O)c2cc(C(=O)Nc3ccccc3-c3ccccc3)ccc2C)c1	inconclusive [inhibitor, single point]	–
Cc1ccc(-n2cnc3cc(C(=O)NC4CCCCCC4)ccc32)c(C)c1	inconclusive [inhibitor, single point]	–
Cc1ccc(C)c(N2CCN(C(=O)c3ccc4nsnc4c3)CC2)c1	active: 11.6 µM	–
COc1ccc(CC(C)N2CCN(c3cccc(C(F)(F)F)c3)CC2)cc1OC (stereo unspecified)	inconclusive [inhibitor, single point]	–
CCOC(=O)C(CC)Sc1nnc2cc(C)c3ccccc3n12 (stereo unspecified)	inconclusive [inhibitor, single point]	–
CCOc1ccc(N(CC(=O)N/N=C(\C)c2cccc(NC(C)=O)c2)S(=O)(=O)c2ccccc2)cc1	–	inactive: -22.9%
COc1ccccc1Cn1cccc1C=O	–	inactive: 10.4%
CN(Cc1ccc(Cl)cc1)C(=O)c1ccc2ccccc2n1	inconclusive [inhibitor, partial curve, poor fit]	–
C/C=C/COC(=O)c1[nH]c2c(c1C)C(=O)CC(c1ccco1)C2 (stereo unspecified)	active: 0.291 µM	–
CCN(c1ccccc1)S(=O)(=O)c1cc(C(=O)NCC(c2ccc(OC)cc2)N(C)C)ccc1C (stereo unspecified)	inconclusive [inhibitor, single point]	–
CCc1ccc(Cn2nnc3c(=O)[nH]c(C4CCCN(C(=O)c5cccc(Cl)c5)C4)nc32)cc1 (stereo unspecified)	inconclusive [inhibitor, single point]	–
COC(=O)CSc1nc2sc3c(c2c(=O)n1-c1ccc(OC)cc1)CCN(C)C3	inconclusive [inhibitor, single point]	–
CCCCn1nnnc1C(c1ccccc1)N1CCc2ccccc2C1 (stereo unspecified)	inconclusive [inhibitor, single point]	–
O=C(CSCc1cccc(Br)c1)N1CCOCC1	–	inactive: -26.6%
